Results taken from patent US11440970B2, “Nicotine-binding antibodies” (priority 2017, dated 2022).

Columns and labels:
[1] = Nicotine binding affinity by Surface Plasmon Resonance Biosensor
Method: The KD values reported below were determined by Surface Plasmon Resonance Biosensor. Other methodology for determining binding affinity also can be used, such as equilibrium dialysis.

[2] = Binding affinity for R-(+)-nicotine
[3] = Single dose nicotine pharmacokinetic study in antibody pre-treated rats; type: in vivo; conditions: rats pre-treated with 20 mg/kg antibody; 0.03 mg/kg nicotine i.v.; 3 minutes later; vs control rats
[4] = Single dose nicotine dose-response study in antibody pre-treated rats; type: in vivo; conditions: for serum nicotine level / brain nicotine level: 3 min; for serum nicotine level: control 21 ng/mL; for brain nicotine level: control 139 ng/g
Method: Rats were used since their nicotine metabolism is generally similar to humans in rate and range of metabolites. Rats were pre-treated with 10, 20, or 40 mg/kg of 12F5 IgG4 or 8D1 IgG4. […] Three minutes later, the animals were sacrificed and the amount of nicotine in their serum and brains was quantified.
Serum levels of antibody were measured using ELISA and rats that had less than 5 μg/mL serum antibody level (due to incomplete administration) were excluded from the analyses.

[5] = Accelerated stability study, Size Exclusion Chromatography; type: physicochemical; conditions: for Main Peak Area: PBS, approximately 10 mg/ml
Method: To determine the relative stability of exemplary nicotine-binding antibodies, antibodies 8D1-IgG4 and 12F5 IgG4 were formulated in phosphate buffer saline (PBS) at a concentration of approximately 10 mg/ml and incubated at 40° C. or 5° C.

[6] = In vivo study of acute heavy smoking, 5 repeated nicotine doses; set-up: species or system rats; conditions: for brain nicotine levels reduced by, compared to control IgG: after the fifth nicotine dose; for total serum nicotine level / brain nicotine level: following the 5th nicotine dose; for total serum nicotine level: control 60 ng/mL; for brain nicotine level: control 298 ng/g
[7] = Nicotine self-administration (NSA) in rats; type: in vivo
Method: After NSA stabilized at this unit dose, rats received twice-weekly i.v. infusions of 160 mg/kg 8D1-IgG4 (N=7) or 160 mg/kg Gammagard (control mAb, N=7) 30 minutes prior to the session while rats continued NSA at the 0.015 mg/kg dose for 10 consecutive sessions. […] Although the dose of 8D1-IgG4 was high, the effective dose for smoking cessation in humans will likely be much lower because people will be motivated to quit. […] Rollema, H. et al., Neuropharmacology, 52: 985-994 (2007).

[8] = rats; i.v.; non-compartmental analysis
Method: (§1) The pharmacokinetics of 8D1-IgG4 were tested in rats following a single dose (20 mg/kg; FIG. 6) and repeated doses (40 mg/kg; FIG. 7) of 8D1-IgG4 dosed weekly for 4 weeks in rats (N=6). Residual mAb concentrations were measured at various time points after i.v. dosing. […] Rodent PK assays of mAb's are not always predictive of PK in humans but are often used as a measure of “in vivo fitness” in the lead selection process.

[9] = Unbound nicotine by ultrafiltration at end of pharmacokinetic study; type: in vivo, rats; conditions: end of PK study, 0.03 mg/kg i.v. nicotine, 3 minutes
Method: as §1

[10] = Non-GLP 4-week repeated high-dose toxicology study; type: in vivo, rats
Method: 8D1-IgG4 was dosed i.v. once weekly at 200 mg/kg.
Assessment of toxicity was based on mortality, clinical observations, and body weight during the course of the 28-day study, and at the end of study organ weights, gross anatomic pathology, hematology, serum clinical chemistry, and coagulation was performed. Histopathology of selected tissues (heart, liver, lung, kidney, spleen, skeletal muscle, brain, colon, stomach, ovary, and testis) is pending. Tissues were fixed immediately in formalin, and processed for embedding in paraffin, staining with H&E, and review by a veterinary pathologist.

[11] = Cross reactivity (IC50 ratio), S-Nicotine; type: binding
Description: (§2) Of these, cotinine, nicotinamide, B-nicotinamide adenine dinucleotide, and nornicotine are nicotine-related molecules; bupropion, varenicline and cytisine are smoking-cessation drugs, and acetylcholine chloride, 3-hydroxytyramine (dopamine), serotonin, and norepinephrine are neurotransmitters. A cross-reactivity of less than 0.1%, less than 0.05%, less than 0.01%, or less than 0.005%, or less than 0.001%, or less than 0.0005%, or less than 0.0001% is considered to be substantially not cross-reactive.

[12] = Cross reactivity (IC50 ratio), Cotinine; type: binding; set-up: key: NCR = no cross reactivity detected
Description: as §2

[13] = Cross reactivity (IC50 ratio), Acetylcholine Chloride; type: binding; set-up: key: NCR = no cross reactivity detected
Description: as §2

[14] = Cross reactivity (IC50 ratio), Nicotinamide; type: binding; set-up: key: NCR = no cross reactivity detected
Description: as §2

[15] = Cross reactivity (IC50 ratio), Dopamine HCl; type: binding; conditions: 3-Hydroxytyramine HCl (Dopamine HCl)
Description: as §2

[16] = Cross reactivity (IC50 ratio), Serotonin Hydrochloride; type: binding; set-up: key: NCR = no cross reactivity detected
Description: as §2

[17] = Cross reactivity (IC50 ratio), Norepinephrine; type: binding; conditions: (+/−)-Norepinephrine (+)-Bitartrate Salt
Description: as §2

[18] = Cross reactivity (IC50 ratio), Nornicotine; type: binding; set-up: key: NCR = no cross reactivity detected
Description: as §2

[19] = Cross reactivity (IC50 ratio), Bupropion; type: binding; set-up: key: NCR = no cross reactivity detected
Description: as §2

[20] = Cross reactivity (IC50 ratio), Cytisine; type: binding
Description: as §2

[21] = Cross reactivity (IC50 ratio), Varenicline tartrate; type: binding
Description: as §2

[22] = Cross reactivity (IC50 ratio), B-Nicotinamide Adenine Dinucleotide; type: binding
Description: as §2

[23] = S-Nicotine, 25° C., Surface Plasmon Resonance Biosensor, read-out: KD (nM) (S-Nicotine; 25° C.)
[24] = 10 mg/kg antibody, 0.03 mg/kg nicotine i.v.
[25] = 20 mg/kg antibody, 0.03 mg/kg nicotine i.v.
[26] = 40 mg/kg antibody, 0.03 mg/kg nicotine i.v.
[27] = 200 mg/kg i.v. once weekly, 4 weeks, rats

B1: 8D1-IgG4: IgG4 (S228P) nicotine-binding antibody, heavy chain SEQ ID NO: 27, light chain SEQ ID NO: 28 (antibody)
heavy: QVRLQESGPGLVKPSGTLSLTCAVSGGSIYSSNWWTWVRQPPGKGLEWVGEIHIRGTTYYNPSLNSRVTISLDKSNNQVSLRLTSVTAADSAVYYCVSQEVGGPDLWGQGTLVTVSSASTKGPSVFPLAPCSRSTSESTAALGCLVKDYFPEPVTVSWNSGALTSGVHTFPAVLQSSGLYSLSSVVTVPSSSLGTKTYTCNVDHKPSNTKVDKRV[here human IgG4 Fc with S228P (EU numbers) without letters]
light: NFMLTQPHSVSESPGKTVTISCTRSGGSIATYYVQWYQQRPGSAPTNVIYKYDQRPSGVPDRFSGSIDSSSNSASLTISGLKTEDEADYYCQSYDNNIQVFGGGTKLTVLGQPKAAPSVTLFPPSSEELQANKATLVCLISDFYPGAVTVAWKADGSPVKAGVETTKPSKQSNNKYAASSYLSLTPEQWKSHRSYSCQVTHEGSTVEKTVAPTECS
Kd [1, 23]: 5 nM | Kd ([2]; R-(+)-nicotine): 92 nM | enantiomer binding preference ([2]; S-(−)-nicotine versus R-(+)-nicotine): preferentially bind to S-(−)-nicotine | decrease in the level of nicotine localized in the brain [3]: 80% | brain nicotine level, % of the control level ([4]; 10 mg/kg antibody): 49% | serum nicotine level, fold of the control level ([4]; 10 mg/kg antibody): 11 fold | serum nicotine level [4, 24]: 226 ng/mL | brain nicotine level [4, 24]: 68 ng/g | brain nicotine level, % of the control level ([4]; 20 mg/kg antibody): 16% | serum nicotine level, fold of the control level ([4]; 20 mg/kg antibody): 17 fold | serum nicotine level [4, 25]: 351 ng/mL | brain nicotine level [4, 25]: 22 ng/g | brain nicotine level, % of the control level ([4]; 40 mg/kg antibody): 3% | serum nicotine level, fold of the control level ([4]; 40 mg/kg antibody): 22 fold | serum nicotine level [4, 26]: 470 ng/mL | brain nicotine level [4, 26]: 4 ng/g | decrease of the amount of nicotine localized in the brain ([4]; 40 mg/kg antibody, 0.03 mg/kg nicotine i.v., rats): more than 95% | % Aggregates ([5]; 2 week, 5° C.): 0.98% | % Fragments ([5]; 2 week, 5° C.): 0% | Main Peak Area ([5]; 2 week, 5° C.): 500,715 | % Aggregates ([5]; 2 week, 40° C.): 2.9% | % Fragments ([5]; 2 week, 40° C.): 0% | Main Peak Area ([5]; 2 week, 40° C.): 523,434 | % Aggregates ([5]; 4 week, 5° C.): 0% | % Fragments ([5]; 4 week, 5° C.): 0% | Main Peak Area ([5]; 4 week, 5° C.): 476,309 | % Aggregates ([5]; 4 week, 40° C.): 4.0% | % Fragments ([5]; 4 week, 40° C.): 0% | Main Peak Area ([5]; 4 week, 40° C.): 586,613 | brain nicotine level, % of the control level ([6]; 40 mg/kg antibody): 49% | total serum nicotine level, fold of the control level ([6]; 40 mg/kg antibody): 19 fold | brain nicotine levels reduced by, compared to control IgG ([6]; 40 mg/kg antibody): 51% | total serum nicotine level ([6]; 40 mg/kg antibody): 1130 ng/mL | brain nicotine level ([6]; 40 mg/kg antibody): 146 ng/g | brain nicotine level, % of the control level ([6]; 80 mg/kg antibody): 8% | total serum nicotine level, fold of the control level ([6]; 80 mg/kg antibody): 33 fold | brain nicotine levels reduced by, compared to control IgG ([6]; 80 mg/kg antibody): more than 90% | total serum nicotine level ([6]; 80 mg/kg antibody): 1987 ng/mL | brain nicotine level ([6]; 80 mg/kg antibody): 23 ng/g | free nicotine ([6]; of total serum nicotine, 40 and 80 mg/kg antibody, refers to Example 8): < 2% | brain nicotine levels after 5 nicotine doses (FIG. 4B) ([6]; rats pretreated with antibody): decrease | serum nicotine levels after 5 nicotine doses (FIG. 4A) ([6]; rats pretreated with antibody): increase | nicotine self-administration (NSA) compared to baseline and to control rats ([7]; 160 mg/kg i.v. twice-weekly, unit nicotine doses 0.015 and 0.0075 mg/kg): significant decrease | mean number of self-administered infusions at Baseline relative to during antibody treatment (FIG. 5) ([7]; each unit nicotine dose): significantly higher | clearance [8]: 6 mL/h/kg | elimination phase half-life [8]: 131 h | steady-state VD [8]: 79.2 mL/kg | unbound nicotine [9]: < 2% | tolerability ([10]; 200 mg/kg i.v. once weekly, 4 weeks, with and without nicotine, rats): well-tolerated with no obvious pathology | daily clinical observations [10, 27]: no observable behavioral changes or modifications in feeding or grooming | mortality [10, 27]: no mortality | serum clinical chemistry and plasma coagulation ([10]; 23 analytes, between treatment groups): did not find any notable changes | gross pathology at necropsy ([10]; end of study): No gross pathological findings | hematological parameters (complete blood count) ([10]; end of study): no significant changes or trends | organ weights ([10]; liver, lung, spleen, heart, kidneys, testis or ovaries): no statistically significant changes | body weight ([10]; monitored twice weekly, between treatment groups): no significant differences

B2: 8D1: IgG1 nicotine-binding antibody, heavy chain SEQ ID NO: 1, light chain SEQ ID NO: 2 (antibody)
heavy: QVRLQESGPGLVKPSGTLSLTCAVSGGSIYSSNWWTWVRQPPGKGLEWVGEIHIRGTTYYNPSLNSRVTISLDKSNNQVSLRLTSVTAADSAVYYCVSQEVGGPDLWGQGTLVTVSS[here human IgG1 constant region without letters]
light: NFMLTQPHSVSESPGKTVTISCTRSGGSIATYYVQWYQQRPGSAPTNVIYKYDQRPSGVPDRFSGSIDSSSNSASLTISGLKTEDEADYYCQSYDNNIQVFGGGTKLTVLGQPKAAPSVTLFPPSSEELQANKATLVCLISDFYPGAVTVAWKADGSPVKAGVETTKPSKQSNNKYAASSYLSLTPEQWKSHRSYSCQVTHEGSTVEKTVAPTECS
Kd [1, 23]: 5 nM | Kd ([1]; as printed in Table 4, read-out: S-Nicotine affinity KD): 5 nM | percent of cross reactivity (IC50, Nicotine/IC50, Compound × 100%) [11]: 100% | percent of cross reactivity (IC50, Nicotine/IC50, Compound × 100%) [12]: NCR* | percent of cross reactivity (IC50, Nicotine/IC50, Compound × 100%) [13]: NCR | percent of cross reactivity (IC50, Nicotine/IC50, Compound × 100%) [14]: NCR | percent of cross reactivity (IC50, Nicotine/IC50, Compound × 100%) [15]: 0.0003% | percent of cross reactivity (IC50, Nicotine/IC50, Compound × 100%) [16]: NCR | percent of cross reactivity (IC50, Nicotine/IC50, Compound × 100%) [17]: 0.0005% | percent of cross reactivity (IC50, Nicotine/IC50, Compound × 100%) [18]: NCR | percent of cross reactivity (IC50, Nicotine/IC50, Compound × 100%) [19]: NCR | percent of cross reactivity (IC50, Nicotine/IC50, Compound × 100%) [20]: 0.0001% | percent of cross reactivity (IC50, Nicotine/IC50, Compound × 100%) [21]: 0.0002% | percent of cross reactivity (IC50, Nicotine/IC50, Compound × 100%) [22]: 0.0002%
